Drawing on the RNAGym collection of RNA variant scans (doi:10.7554/elife.90254), this text covers self-cleavage for 167 variants.

B1: LINE1-full (parent)
chain: UACGUAGGUGGUUUUCCCCUGAUAGUGCUAAGGGGGCCUGGAAGUUUGGACUGGGCAGAGCUCAACACAGCGUGGCAAAGUGGCUGUGGCUAGACUGCCUCUCUGGAUUCCUCGUCACUCAGCAGGGCAUCUCUGAGAGAAAUGCC

The source gives no read counts; variants with many changes may rest on few reads.

The variants in this data set derive from B1. Put plainly: self-cleavage, relative activity (ratio to wild type); higher = more cleavage; in vitro, sequencing; the parent is a self-cleaving ribozyme.
Turning to U26C G53A A94G, the self-cleavage amounted to 0.33.

U26C C120U G126C A140U: the self-cleavage was determined as 1.62.

In the case of U26A A129U A138G, the self-cleavage is 1.04.

U26A A77G U87C: the self-cleavage amounted to 0.16.

Regarding U29C A42U C51U U102C A142G, the self-cleavage was 1.45.

For U26G G89A U96C A124U, the self-cleavage came out at 0.05.

As to U26C C66A U96A A124G, the self-cleavage worked out at 0.02.

As to U26C A64G U96C, the self-cleavage was 0.

Take U26C U62C A142G: the self-cleavage was found to be 0.

U26G U39C G55C: the self-cleavage came out at 0.39.

For U29C G41U A69G, the self-cleavage stood at 0.14.

For U26C U87A U104C, the self-cleavage was found to be 0.14.

U26A U81G U108C A117G: the self-cleavage was found to be 2.04.

For the variant U26G C103U U112C A121U, the self-cleavage was 1.26.

With U29C U62A A129G, the self-cleavage came out at 0.14.

In the case of U26C A79G U96C C133U, the self-cleavage is 0.15.

Consider U26A U39C C66U A92G U115C A140G, for which the self-cleavage worked out at 0.

Regarding U26C U46C G48U, the self-cleavage amounted to 1.79.

As for U26A A79G U96C U102C U134C, the self-cleavage stood at 0.

Take G27A A43G G75A U130A: the self-cleavage was found to be 0.55.

U29C A77U U96A C103U: the self-cleavage worked out at 0.04.

As for U26C A42G U132C, the self-cleavage was 1.35.

For the variant U29A A57G A65G C66A A77G A138C, the self-cleavage is 0.2.

Consider U29C A78U A94G, for which the self-cleavage was 1.02.

With U29C G32A U96A U112C, the self-cleavage worked out at 0.06.

As to U26C A31G A64G A107U, the self-cleavage is 0.59.

With U26C A78G C145U, the self-cleavage is 1.3.

Take U26C C38A U134A: the self-cleavage was found to be 0.78.

As to C28U U62C A121G A138U, the self-cleavage came out at 0.06.

As for U26A A107G A129U, the self-cleavage was 0.95.

For U26C A42G A138U, the self-cleavage was 1.25.

Turning to U26C G35A A124U, the self-cleavage worked out at 1.14.

On to U26C U45A U52A U109A U134G A141G, for which the self-cleavage is 1.13.

Consider U26C A42G U85A A136G, for which the self-cleavage was found to be 0.

Regarding U26A A69C G89A, the self-cleavage was determined as 0.

For U29C U46C G89A U100C A124U A138G, the self-cleavage came to 0.04.

As for U26C U96A U115A, the self-cleavage is 0.03.

With U26A C71A U73A A79U, the self-cleavage amounted to 0.03.

On to G27A U46A A65G A78G, for which the self-cleavage amounted to 0.03.

On to G27A A31U A42G A64G A107G, for which the self-cleavage was 0.

Turning to G27A A57G A79G C145G, the self-cleavage amounted to 0.5.

In the case of U26C U47C A138G, the self-cleavage stood at 1.6.

For the variant U29C G53U U62C C131U U134C, the self-cleavage was determined as 0.05.

Turning to U29C G83A C103A U134G A142G, the self-cleavage is 1.33.

Regarding U26C U39G A65G, the self-cleavage amounted to 0.

For the variant U29C G55A G93A A142G U143C, the self-cleavage was 0.04.

U26C C103A G126A A138G: the self-cleavage worked out at 0.97.

U29C A30G U96A U102C: the self-cleavage was 0.

Regarding U26A U39A U85C, the self-cleavage is 0.09.

As to U29A C90A A121C, the self-cleavage worked out at 0.04.

For the variant U26C A31C G88A A129U A140G, the self-cleavage came to 0.17.

With U26G A94G U96C U112A U119A, the self-cleavage amounted to 0.

As to U26C A67G U130A A138G, the self-cleavage amounted to 0.44.

For the variant U26A A59G U108A, the self-cleavage turned out to be 0.04.

Regarding U26C G70U U91C, the self-cleavage was found to be 0.05.

Regarding G25U C71U U115A, the self-cleavage came out at 0.9.

With U26C U96A U130C, the self-cleavage amounted to 0.14.

As to U26A U39C A57U U100C C113U, the self-cleavage came to 0.18.

In the case of G27A U73A U87C U115C, the self-cleavage turned out to be 0.13.

Consider G25U A42G U100C A138U, for which the self-cleavage was 1.08.

For the variant U26C G82U A138U, the self-cleavage is 1.65.

For U26A A117U A129U, the self-cleavage was determined as 0.68.

In the case of U26C A43G A57G, the self-cleavage was 0.27.

In the case of G25A U62G U91A U96A A136U, the self-cleavage stood at 0.05.

As to U26C A42G U73C A140G G144A, the self-cleavage stood at 0.

In the case of C28A U87C G139A, the self-cleavage was 0.2.

Consider U29C A79G U87C, for which the self-cleavage came to 0.68.

Take U26C U87A C90U: the self-cleavage amounted to 0.04.

For U26C G32A A67G C99U U115C, the self-cleavage stood at 0.32.

With U26A A59G U85C, the self-cleavage came to 0.04.

On to U26C U112C G137U, for which the self-cleavage was 1.51.

For the variant U26C A43G U46A U81C A129C, the self-cleavage came to 2.45.

With U29A U109G A117U, the self-cleavage amounted to 0.42.

As to G27A U108C A124G, the self-cleavage was 1.53.

As to G27A U29C U102C U132A, the self-cleavage was determined as 1.34.

Take U29A U115A A129G: the self-cleavage worked out at 2.12.

As for G27A G93A C128U, the self-cleavage was 0.02.

Turning to U26A U62C A141G, the self-cleavage stood at 0.14.

Regarding U26C A30U U62C U85C U87A, the self-cleavage was found to be 0.

U29C A57G U85C: the self-cleavage is 0.

Consider U26C G55A U96C, for which the self-cleavage turned out to be 0.

As to U26A U39C U62A U100C, the self-cleavage was found to be 0.04.

Regarding U29A U45G A140G, the self-cleavage amounted to 1.21.

With U26C G53C A141G, the self-cleavage was determined as 1.35.

As to U26C G36A A141G, the self-cleavage is 1.27.

Turning to U29C U46C U119C A142G, the self-cleavage amounted to 2.16.

Regarding C28A U81C U108A, the self-cleavage turned out to be 0.55.

As to U26A G55C U119C, the self-cleavage was 0.31.

In the case of U26A C111U A142G, the self-cleavage stood at 1.46.

Consider U26A A64G U73A, for which the self-cleavage was 0.29.

Take U29A A30G A78U: the self-cleavage came to 1.32.

On to U26C U52C A65G A124G, for which the self-cleavage is 0.

For the variant U26C U46C U91C A129U, the self-cleavage was 1.02.

Regarding G25C A50G G72A A121U, the self-cleavage is 0.76.

On to U26C A124U U134A, for which the self-cleavage was found to be 1.56.

For the variant U29A U62C C71U, the self-cleavage was determined as 0.02.

In the case of C28A G34A G40A A92G, the self-cleavage worked out at 0.11.

As for G27A U52A U100C, the self-cleavage turned out to be 1.85.

For U26C A65G A138U, the self-cleavage came out at 0.11.

G27A G54U A67G C68U C71G A121G A124U: the self-cleavage turned out to be 0.02.

U26A U45C G55C A69G: the self-cleavage worked out at 0.

Take U26C U62A U115C: the self-cleavage worked out at 0.15.

On to U29C U47C U52A, for which the self-cleavage was determined as 0.74.

U29A A57G A77G: the self-cleavage was 0.38.

Turning to C28G A31C C37U G88A, the self-cleavage is 0.05.

With U26C A117U U119C, the self-cleavage came out at 2.2.

For U26G U29A U119C, the self-cleavage is 2.3.

Consider U26A A77U U104C, for which the self-cleavage worked out at 1.28.

Consider U29A A77G U87C, for which the self-cleavage amounted to 0.

With C28U U46A U119A, the self-cleavage was found to be 1.2.

Turning to U26C A78G U109C, the self-cleavage is 0.71.

Regarding U29C A124U A136G U143C, the self-cleavage amounted to 1.19.

Consider U26C A117G U132C A141G, for which the self-cleavage is 1.25.

Regarding U26C U45C A136U, the self-cleavage is 1.34.

U26C U81C A138G: the self-cleavage was found to be 0.

U29C A136U A141G: the self-cleavage was found to be 1.9.

Regarding C28A A69U A142G, the self-cleavage amounted to 0.08.

Consider U26A G72A G75C, for which the self-cleavage was 0.12.

For the variant U26C A30G U39A U62C, the self-cleavage is 1.58.

On to U26A G33U U52A, for which the self-cleavage is 0.97.

As to U26G U96C U108C C116A, the self-cleavage was 0.39.

As for U29A A50G A107G, the self-cleavage came to 0.

For U26G A31G G53A A136U A140G, the self-cleavage amounted to 2.04.

For U26G U85A U143A, the self-cleavage amounted to 0.09.

On to C28U G33A A67G A69G A121G A138G, for which the self-cleavage was found to be 0.

With U26C A42G G83A U130C, the self-cleavage was 1.59.

For U26A U45C U115C A136G, the self-cleavage is 2.53.

Take U26A U46A U143C: the self-cleavage is 1.25.

Take U26C U73A U85C U134A: the self-cleavage was found to be 0.12.

Consider U26C A59G U112C, for which the self-cleavage turned out to be 0.26.

In the case of U26C U29C U45A G53A U96C, the self-cleavage was determined as 0.25.

For U26C U62C U100C, the self-cleavage stood at 0.88.

As to U26C A57U C76G U115C U130C, the self-cleavage amounted to 0.

For the variant U26G U29A U46C A65G U104C G127A U134C, the self-cleavage was 0.

As for U26A A42G U47C A124G A138U, the self-cleavage was determined as 0.71.

For the variant U26C A94G U96C C120U A129G, the self-cleavage turned out to be 0.

For the variant U29A A64G A67G C76U A94G, the self-cleavage came out at 0.06.

Turning to C28A A43G A67U C68U A69G A142G, the self-cleavage amounted to 0.05.

On to U29A U85C A141G, for which the self-cleavage stood at 0.17.

For the variant C28G G80A A142U, the self-cleavage stood at 1.43.

Consider U26C U39A A50U U108C, for which the self-cleavage came to 1.23.

For the variant U26C A64G A69U A94G U100A A141G, the self-cleavage was 0.

With U26A A42G U52A A107U U119C, the self-cleavage came to 2.45.

As to U26C U39C U109C A138G, the self-cleavage was determined as 1.53.

As for U26C U52C U112C, the self-cleavage is 1.02.

Turning to G25C A69U U134A, the self-cleavage was 0.11.

For U26C U39C A64G, the self-cleavage came to 0.45.

Turning to U29A U73A U104A A121U, the self-cleavage came out at 2.45.

As for U26A U87A A117G A138G, the self-cleavage came out at 0.18.

As to G25U A64U A121G, the self-cleavage is 0.32.

For U26C U52C A64G C123U U132C, the self-cleavage is 0.04.

Turning to U26C A43G A141G, the self-cleavage amounted to 1.31.

With G25A U47C U115C, the self-cleavage is 2.83.

Consider U26C U119C U132C, for which the self-cleavage is 2.07.

As for U29C A69G U132A, the self-cleavage was determined as 1.18.

For U26C A67C G75U, the self-cleavage stood at 0.02.

Turning to U26A U29G A42G U73C, the self-cleavage was 0.84.

As for U29C A50G U104C C113A, the self-cleavage worked out at 1.69.

Take U26C U52A A142G U143A: the self-cleavage is 2.38.

Turning to U26A A117G G122C, the self-cleavage came out at 1.34.

As for U26C U73C A77U U87A U115A A117U, the self-cleavage was 0.06.

Regarding U29C C56A U62A A121C, the self-cleavage is 0.06.

Consider U29C A43G U81A U112C, for which the self-cleavage was 2.51.

On to U26A A42G A65G, for which the self-cleavage was 0.17.

For U26C C61U U104A, the self-cleavage was 0.04.

For the variant U26C A121G A141G U143C, the self-cleavage was found to be 0.

On to U29A A59G A124G, for which the self-cleavage is 0.14.
